Target: TCR Vδ2 (TRDV2) (human), A0JD36
Assay: cell-based or functional assay

B1: VG9B169 (antibody, human IgG1, lambda)
heavy: EVQLLESGPGLVKPSETLSLTCSVSGGSITNYFWNWIRQPPGKGLEWIGYIFYSGSTSYNPSLKSRVTISVDTSKNRFSLKLISVTAADTAVYYCARVGRWELRTAFDIWGQGTMVTVSS[human IgG1 constant region omitted here]
light: QSALTQPPSASGTPGQRVTIS[about 80 residues omitted here][about 120 residues omitted here]
  CD25+ (Vg9+ cells), flow staining: 30.3%
  CD71+ (Vg9+ cells), flow staining: 95.3%
  Vg9 T cell %, flow staining: 2%

— patent US20220125947A1
